Test results taken from patent US20250034538A1 (Hoffmann-La Roche, published 2025).

Tests used:
[1] = molecular target: T1, mouse transferrin receptor (mouse, UniProt Q62351); assay: cell-based or functional assay
[2] = molecular target: T1, mouse transferrin receptor; assay: FACS on mouse-TfR expressing BA/F3 cells, PE anti-human IgG Fc secondary
Excerpt: (§1) We generated a variety of insect cell (S2)-derived constructs and analysed the purified molecules to assess their TfR binding and enzymatic properties (FIG. 1B-D). […] We benchmarked the enzymatic properties of all molecules described in the manuscript to the conventional ERT molecule imiglucerase (commercially available as Cerezyme). There is a tendency for the Brain Shuttle constructs to be more efficient in terms of the ratio of turnover to affinity to resorufin-β-D-glucopyranoside. Naked GCase constructs and TfR non-binder (GCase-NB) are very similar to imiglucerase (FIG. 1C). In addition, initial testing by spiking the produced murine and human GCase-BS constructs into 10% mouse plasma for a period of 15 minutes and both stability and enzymatic activity were maintained (FIG. 1E).
(§2) The binding of the GCase-BS fusions was tested using mouse-TfR expressing cell line BA/F3 (DSMZ, ACC-300) or human-TfR expressing CHO cells (ATCC, CCL-61, transfected to stably overexpress human TfR). Briefly, suspension cells were harvested, counted, checked for viability and re-suspended at 2 million cells per ml in FACS buffer (PBS with 0.1% BSA). 100 μl of the cell suspension (containing 0.2 million cells) were incubated in round-bottom 96-well plates for 1 hour at 4° C. with increasing concentrations of the GCase fusions (10 pM to 1 μM).

[3] = molecular target: T2, human transferrin receptor (human, UniProt P02786); assay: cell-based or functional assay
[4] = molecular target: T2, human transferrin receptor; assay: FACS on CHO cells stably overexpressing human TfR, PE anti-human IgG Fc secondary
T2 sequence (P02786 whole entry): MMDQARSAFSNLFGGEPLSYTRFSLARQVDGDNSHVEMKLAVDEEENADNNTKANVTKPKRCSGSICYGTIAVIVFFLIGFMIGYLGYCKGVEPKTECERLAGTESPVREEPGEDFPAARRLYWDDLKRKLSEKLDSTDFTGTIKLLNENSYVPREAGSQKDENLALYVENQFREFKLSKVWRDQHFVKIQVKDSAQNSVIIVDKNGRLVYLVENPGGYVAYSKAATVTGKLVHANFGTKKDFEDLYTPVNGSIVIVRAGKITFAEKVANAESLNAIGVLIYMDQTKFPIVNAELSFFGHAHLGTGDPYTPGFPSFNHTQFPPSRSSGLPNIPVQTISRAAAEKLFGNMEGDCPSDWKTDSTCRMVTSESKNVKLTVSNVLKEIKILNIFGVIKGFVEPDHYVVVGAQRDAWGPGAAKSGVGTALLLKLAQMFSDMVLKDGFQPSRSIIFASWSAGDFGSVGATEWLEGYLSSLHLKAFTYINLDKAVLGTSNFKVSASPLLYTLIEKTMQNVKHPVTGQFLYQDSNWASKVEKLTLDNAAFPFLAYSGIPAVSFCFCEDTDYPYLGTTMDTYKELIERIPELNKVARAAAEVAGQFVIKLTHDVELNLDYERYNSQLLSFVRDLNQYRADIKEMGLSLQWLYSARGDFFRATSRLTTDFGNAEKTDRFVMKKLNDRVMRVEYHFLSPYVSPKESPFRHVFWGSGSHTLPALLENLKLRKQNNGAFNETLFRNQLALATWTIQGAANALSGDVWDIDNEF
Excerpt: as §1, §2

T1 sequence (Q62351 whole entry): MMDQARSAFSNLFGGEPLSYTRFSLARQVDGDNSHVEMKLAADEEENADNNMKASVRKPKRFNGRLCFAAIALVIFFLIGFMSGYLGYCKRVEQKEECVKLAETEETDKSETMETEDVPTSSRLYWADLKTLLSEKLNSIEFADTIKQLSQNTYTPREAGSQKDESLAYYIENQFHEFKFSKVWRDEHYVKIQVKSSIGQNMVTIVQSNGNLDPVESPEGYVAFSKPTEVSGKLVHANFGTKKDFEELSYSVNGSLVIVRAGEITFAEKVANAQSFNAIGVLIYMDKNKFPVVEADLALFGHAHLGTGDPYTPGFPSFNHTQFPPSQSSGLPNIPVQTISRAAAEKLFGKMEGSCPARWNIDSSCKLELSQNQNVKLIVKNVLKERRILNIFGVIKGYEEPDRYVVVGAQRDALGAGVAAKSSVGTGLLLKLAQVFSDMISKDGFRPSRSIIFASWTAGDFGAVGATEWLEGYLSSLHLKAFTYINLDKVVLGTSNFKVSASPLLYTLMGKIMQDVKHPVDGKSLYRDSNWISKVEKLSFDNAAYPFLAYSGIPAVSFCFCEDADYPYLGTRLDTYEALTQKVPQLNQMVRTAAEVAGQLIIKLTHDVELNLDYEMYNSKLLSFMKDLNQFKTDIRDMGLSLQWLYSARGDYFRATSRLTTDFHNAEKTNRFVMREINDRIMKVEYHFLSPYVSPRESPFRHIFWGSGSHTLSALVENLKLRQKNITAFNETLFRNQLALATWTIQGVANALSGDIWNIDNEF

Row | Binder | GlcSph reduction after 48 h in mouse cortical neurons, IC50 fold against mGCase alone [1] | EC50 [2] | GlcSph reduction after 48 h in H4 cells, IC50 fold against imiglucerase [3] | EC50 [4]
1 | mGCase-mBS (Fc fusion, The exact chain make-up in the assay is therefore uncertain; also called murine GCase Brain Shuttle; GCase-BS (mouse)) chain 1: AQPCIPKSFGYSSVVCVCNASYCDSLDPVTLPALGTFSRYESTRRGRRMELSVGAIQANRTGTGLLLTLQPEKKFQKVKGFGGAMTDATALNILALSPPTQKLLLRSYFSTNGIEYNIIRVPMASCDFSIRVYTYADTPNDFQLSNFSLPEEDTKLKIPLIHQALKMSSRPISLFASPWTSPTWLKTNGRVNGKGSLKGQPGDIFHQTWANYFVKFLDAYAKYGLRFWAVTAENEPTAGLFTGYPFQCLGFTPEHQRDFISRDLGPALANSSHDVKLLMLDDQRLLLPRWAEVVLSDPEAAKYVHGIAVHWYMDFLAPAKATLGETHRLFPNTMLFASEACVGSKFWEQSVRLGSWDRGMQYSHSIITNLLYHVTGWTDWNLALNPEGGPNWVRNFVDSPIIVDIPKDAFYKQPMFYHLGHFSKFIPEGSQRVALVASESTDLETVALLRPDGSAVVVVLNRSSEDVPLTISDPDLGFLETVSPGYSIHTYLWRRQGSLPETGGGDKTHTCPPCPAPEAAGGPSVFLFPPKPKDTLMISRTPEVTCVVVDVSHEDPEVKFNWYVDGVEVHNAKTKPREEQYNSTYRVVSVLTVLHQDWLNGKEYKCKVSNKALGAPIEKTISKAKGQPREPQVCTLPPSRDELTKNQVSLSCAVKGFYPSDIAVEWESNGQPENNYKTTPPVLDSDGSFFLVSKLTVDKSRWQQGNVFSCSVMHEALHNRFTQKSLSLSPGK chain 2: [human IgG1 Fc with changes not spelt out]GGSGGGGSGGGGSGGGGSDIQMTQSPASLSASLEEIVTITCQASQDIGNWLAWYQQKPGKSPQLLIYGATSLADGVPSRFSGSRSGTQFSLKISRVQVEDIGIYYCLQAYNTPWTFGGGTKVEIKRTVAAPSVFIFPPSDEQLKSGTASVVCLLNNFYPREAKVQWKVDNALQSGNSQESVTEQDSKDSTYSLSSTLTLSKADYEKHKVYACEVTHQGLSSPVTKSFNRGECGGGGSGGGGSGGGGSGGGGSGGGGSGGGGSGGEVQLVESGGGLVQPGNSLTLSCVASGFTFSNYGMHWIRQAPKKGLEWIAMIYYDSSKMNYADTVKGRFTISRDNSKNTLYLEMNSLRSEDTAMYYCAVPTSHYVVDVWGQGVSVTVSSASTKGPSVFPLAPSSKSTSGGTAALGCLVKDYFPEPVTVSWNSGALTSGVHTFPAVLQSSGLYSLSSVVTVPSSSLGTQTYICNVNHKPSNTKVDKKVEPKSC | > 100 fold | 21 nM |  | 
2 | hGCase-hBS (Fc fusion, also called human GCase Brain Shuttle; GCase-BS (human)) chain 1: ARPCIPKSFGYSSVVCVCNATYCDSFDPPTFPALGTFSRYESTRSGRRMELSMGPIQANHTGTGLLLTLQPEQKFQKVKGFGGAMTDAAALNILALSPPAQNLLLKSYFSEEGIGYNIIRVPMASCDFSIRTYTYADTPDDFQLHNFSLPEEDTKLKIPLIHRALQLAQRPVSLLASPWTSPTWLKTNGAVNGKGSLKGQPGDIYHQTWARYFVKFLDAYAEHKLQFWAVTAENEPSAGLLSGYPFQCLGFTPEHQRDFIARDLGPTLANSTHHNVRLLMLDDQRLLLPHWAKVVLTDPEAAKYVHGIAVHWYLDFLAPAKATLGETHRLFPNTMLFASEACVGSKFWEQSVRLGSWDRGMQYSHSIITNLLYHVVGWTDWNLALNPEGGPNWVRNFVDSPIIVDITKDTFYKQPMFYHLGHFSKFIPEGSQRVGLVASQKNDLDAVALMHPDGSAVVVVLNRSSKDVPLTIKDPAVGFLETISPGYSIHTYLWHRQGSGGGGSGGSG[human IgG1 Fc with changes not spelt out] chain 2: ADKTHTCPPCPAPEAAGGPSVFLFPPKPKDTLMISRTPEVTCVVVDVSHEDPEVKFNWYVDGVEVHNAKTKPREEQYNSTYRVVSVLTVLHQDWLNGKEYKCKVSNKALGAPIEKTISKAKGQPREPQVCTLPPSRDELTKNQVSLSCAVKGFYPSDIAVEWESNGQPENNYKTTPPVLDSDGSFFLVSKLTVDKSRWQQGNVFSCSVMHEALHNRFTQKSLSLSPGGGSGGGGSGGGGSGGGGSQSMQESGPGLVKPSQTLSLTCTVSGFSLSSYAMSWIRQHPGKGLEWIGYIWSGGSTDYASWAKSRVTISKTSTTVSLKLSSVTAADTAVYYCARRYGTSYPDYGDASGFDPWGQGTLVTVSSASVAAPSVFIFPPSDEQLKSGTASVVCLLNNFYPREAKVQWKVDNALQSGNSQESVTEQDSKDSTYSLSSTLTLSKADYEKHKVYACEVTHQGLSSPVTKSFNRGECGGGGSGGGGSGGGGSGGGGSGGGGSGGGGSGGAIQLTQSPSSLSASVGDRVTITCRASQSISSYLAWYQQKPGKAPKLLIYRASTLASGVPSRFSGSGSGTDFTLTISSLQPEDFATYYCQQNYASSNVDNTFGGGTKVEIKSSASTKGPSVFPLAPSSKSTSGGTAALGCLVKDYFPEPVTVSWNSGALTSGVHTFPAVLQSSGLYSLSSVVTVPSSSLGTQTYICNVNHKPSNTKVDKKVEPKSC |  |  | ~5 fold | 15 nM
